Measured values as given in patent US20250059201A1, “CAMPTOTHECIN COMPOUND AND CONJUGATE THEREOF” (priority 2021, published 2025).

Legend:
[1] = test system: Trop-2-positive BxPC-3 tumor cells; experiment: Binding activity to cells positive for Trop-2 (flow cytometry); details: binding to BxPC-3 cells, on ice 1 hour, n = 2
Procedure: (§1) Different concentrations (1, 3, 10, 30, 100, 300, 1000, 3000, 10000, 30000, and 100000 ng/mL) of fluorescently labeled Trop2-ADC-14 and the mAb in Trop2-ADC-14 (i.e., antibody h23-12) were incubated with BxPC-3 cells (purchased from: ATCC) on ice for 1 hour in dark, and then the cells were centrifuged to remove supernatant, washed with PBS, re-suspended, and the fluorescence intensity of the drugs bound to the cells was measured with a flow cytometer (BD ACCURI C6 PLUS). The experiment was repeated once.

[2] = test system: Trop-2-negative HT-29 cells; experiment: Binding activity to cells negative for Trop-2
Procedure: as §1

BxPC-3 cells = experiment: Apoptosis-inducing effect; format: cell-based; details: BxPC-3, 120 hours, over the tested concentrations
Procedure: BxPC-3 cells (purchased from: ATCC) were inoculated into 6-well plates, and then treated with Trop2-ADC-14 (0.020, 0.196, and 1.963 nM), DS-1062 (0.020, 0.196, and 1.963 nM), the mAb in Trop2-ADC-14 (i.e., antibody h23-12) (6.728 nM) and Compound 3 (0.1, 1, and 10 nM) for 120 hours. Next, the cells were harvested, and Annexin-V-FITC and PI were added thereto, and the cells were stained at room temperature for 15 minutes in dark, and finally were re-suspended in the added 300 μl of 1× binding buffer. Apoptosis was detected with a flow cytometer (BD AccuriTMC6 Plus flow cytometer), for which 1×10^4 cells were gated for each group. Experimental data was analyzed using software BD CSampler™ Plus C6.

HT-29 = experiment: Proliferation-inhibiting effect on tumor cells (SRB or MTT assay); format: cell-based, human; details: HT-29, 144 hours, experiment not stated; read-out: IC50
Procedure: (§2) For cells growing by adherence, SRB assay was used to detect effect of antibody-drug conjugates or camptothecins on the proliferation of tumor cells in vitro cultured. A certain number of cells in exponential growth phase were inoculated in 96-well cell culture plates, and when the cells grew by adherence overnight, antibody drug conjugates or camptothecins of different concentrations were added into the cells. 144 hours later, the cells were fixed with trichloroacetic acid, and then stained with SRB (prepared in 1% glacial acetic acid at a concentration of 4 mg/mL). 10 mM Tris solution was added into each well to solubilize the bound SRB. OD values at 510 nm were read on a microplate reader.
(§3) Inhibition (%)=([…] of control well−OD value of dosed well)/OD value of control well×100%
(§4) For cells growing in suspension, MTT assay was used to detect effect of antibody-drug conjugates or camptothecins on the proliferation of tumor cells in vitro cultured. A certain number of cells in exponential growth phase were inoculated in 96-well cell culture plates, and when the cells grew in suspension overnight, antibody-drug conjugates or camptothecins of different concentrations were added into the cells. 144 hours later, MTT was added to each well of the plates, and the incubation was continued for 4 hours at 37° C. in a 5% CO2 saturated humidity incubator. Next, 100 μL of SDS-isobutanol-HCl solution was added into each well of the plates, and OD values at 570 nm and 690 nm were read on a microplate reader.
(§5) Half maximal inhibitory concentration (IC50) was calculated from the inhibition (%) at those different concentrations using the software Graphpad Prism 8.0. The experiment was repeated once and the data was expressed as mean±SD.

NCI-N87 = experiment: as above; format: cell-based, human; details: NCI-N87, 144 hours, experiment not stated; read-out: IC50
Procedure: as §2, §3, §4, §5

Calu-3 = experiment: as above; format: cell-based, human; details: Calu-3, 144 hours, experiment not stated; read-out: IC50
Procedure: as §2, §3, §4, §5

HT1376 = experiment: as above; format: cell-based, human; details: HT1376, 144 hours, experiment not stated; read-out: IC50
Procedure: as §2, §3, §4, §5

BxPC-3 = experiment: as above; format: cell-based, human; details: BxPC-3, 144 hours, experiment not stated; read-out: IC50
Procedure: as §2, §3, §4, §5

MDA-MB-468 = experiment: as above; format: cell-based; details: MDA-MB-468, 144 hours, experiment not stated; read-out: IC50
Procedure: as §2, §3, §4, §5

BT-20 = experiment: as above; format: cell-based; details: BT-20, 144 hours, experiment not stated; read-out: IC50
Procedure: as §2, §3, §4, §5

MCF-7 = experiment: as above; format: cell-based; details: MCF-7, 144 hours, experiment not stated; read-out: IC50
Procedure: as §2, §3, §4, §5

Colo 205 = experiment: as above; format: cell-based; details: Colo 205, 144 hours, experiment not stated; read-out: IC50
Procedure: as §2, §3, §4, §5

MDA-MB-231/TROP2 = experiment: as above; format: cell-based; details: MDA-MB-231/TROP2, 144 hours, experiment not stated; read-out: IC50
Procedure: as §2, §3, §4, §5

BT-474 = experiment: as above; format: cell-based; details: BT-474, 144 hours, experiment not stated; read-out: IC50
Procedure: as §2, §3, §4, §5

MDA-MB-231 = experiment: as above; format: cell-based; details: MDA-MB-231, 144 hours, experiment not stated; read-out: IC50
Procedure: as §2, §3, §4, §5

[3] = test system: BxPC-3 cells positive for Trop-2; experiment: Internalization function (flow cytometry of fluorescently labeled drug); format: cell-based; details: BxPC-3, 37° C., 3 to 48 hours, time-dependent
Procedure: BxPC-3 cells (purchased from: ATCC) were inoculated into 6-well plates, and fluorescently labeled Trop2-ADC-14 and the mAb in Trop2-ADC-14 (i.e., antibody h23-12) each at 1 g/mL were added thereto respectively. The cells were incubated at 37° C. for 3, 6, 12, 18, 24, and 48 hours respectively, and then were digested with trypsin. The Trop2-ADC-14 and the mAb h23-12 not internalized were washed away, and fluorescence intensity was measured with a flow cytometer (BD ACCURI C6 PLUS). The experiment was repeated once.

B1: h23-12 (antibody)
heavy: QVQLVQSGAEVKKPGASVKVSCKASGYTFTSYWMHWVRQAPGQGLEWMGEITPSDNYGSYNQKFKGRVTITRDTSTSTAYMELSSLRSEDTAVYYCARGHGNYVSFDYWGQGTLVTVSSASTKGPSVFPLAPSSKSTSGGTAALGCLVKDYFPEPVTVSWNSGALTSGVHTFPAVLQSSGLYSLSSVVTVPSSSLGTQTYICNVNHKPSNTKVDKRV[not shown - human IgG1 Fc]
light: DIQMTQSPSSLSASVGDRVTITCRASQDISNYLNWYQQKPGKAPKLLIYYTSRLESGVPSRFSGSGSGTDFTLTISSLQPEDFATYFCQQGYTLPPYTFGQGTKLEIKRTVAAPSVFIFPPSDEQLKSGTASVVCLLNNFYPREAKVQWKVDNALQSGNSQESVTEQDSKDSTYSLSSTLTLSKADYEKHKVYACEVTHQGLSSPVTKSFNRGEC
- EC50 (ng/mL, mean ± SD) [1]: 1137.5 ± 128.0 ng/mL
- binding to the Trop-2-negative HT-29 cells [2]: no obvious binding
- apoptosis-inducing effect (BxPC-3 cells): no significant apoptosis-inducing effect
- IC50 (HT-29): > 673 nM
- IC50 (NCI-N87): > 67.3 nM
- IC50 (Calu-3): > 67.3 nM
- IC50 (HT1376): > 67.3 nM
- IC50 (BxPC-3): > 67.3 nM
- IC50 (MDA-MB-468): > 67.3 nM
- IC50 (BT-20): > 67.3 nM
- IC50 (MCF-7): > 67.3 nM
- IC50 (Colo 205): > 67.3 nM
- IC50 (MDA-MB-231/TROP2): > 67.3 nM
- IC50 (BT-474): > 67.3 nM
- IC50 (MDA-MB-231): > 673 nM
- internalization [3]: internalized into the cells
